# Earlier results, collected in patent US8329689B2 (priority 2006, dated 2012).
# Tests used:
# [1] = system: influenza virus; conditions: cited from earlier work
# [2] = system: cellular line MDCK; conditions: cited from earlier work
smiles,measurement,setting,value
"CCOC(=O)c1c(CSc2ccccc2)n(C)c2cc(Br)c(O)c(CN(C)C)c12.Cl [Arbidol, ethyl 6-bromo-4-[(dimethylamino)methyl]-5-hydroxy-1-methyl-2-(phenylthiomethyl)-1H-indole-3-carboxylate hydrochloride]",selectivity index (SI50) for influenza virus,[1],2.69
same,TC50,[2],62.5 µg/mL
